Here are results for 81 compounds from PubChem BioAssay (NCI).

This assay concerns NCI-H322M lung. Briefly: NCI-60 cell line screen, 48 h.

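These data come from cells grown in 96-well plates and exposed to compound for 48 hours at five concentrations. Here, GI50 denotes the concentration required for 50% inhibition of growth. TGI: concentration producing complete growth inhibition.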 Where only a bound is given, the exact number is not on record here.

Turning to `CC(C)CNc1nc(N=[N+]=[N-])nc(NCC(C)C)n1`, the GI50 was over 10 µM and the TGI is over 10 µM.

As for `CS(=O)(=O)OCc1c(O)c2c(c(O)c1COS(C)(=O)=O)C(=O)C=CC2=O`, the TGI is over 100 µM.

On to `C=C(C)[C@@H]1CC[C@]2(C)[C@H](C=CC3=C4C[C@@](C)(CO)CC[C@]4(C)CC[C@]32C)[C@@]1(C)CCCN`, for which the GI50 was 1.57 µM and the TGI was found to be 2.91 µM.

For `CCCCCc1c(C)[nH]c(/C=c2\[nH]/c(=C3/C=c4ccccc4=N3)cc2OC)c1C`, the GI50 is 0.455 µM and the TGI was found to be 7.48 µM.

Regarding `Cc1cccc(N=C2NC(=O)C(CC(=O)Nc3ccc(Cl)cc3C)S2)c1` (stereo not given), the TGI is over 100 µM.

`COC(=O)C(=O)C1CCCCC(C2=NC3NN=C(N)N3C2=O)C1=O` (stereo not given): the TGI is over 100 µM.

On to `CSc1ccc(C2=NN(C(=O)c3ccc(N)cc3)C(c3ccc(F)cc3)C2)cc1` (stereo not given), for which the GI50 was 14.5 µM and the TGI stood at 27.9 µM.

As to `N#Cc1ccccc1Nc1ccccc1S`, the TGI was over 100 µM.

For `CC1(C)CC2CC(C)(CN2c2ncnc3ccc(Br)cc23)C1` (stereo not given), the GI50 is 12.8 µM and the TGI came to 25.4 µM.

In turn, `NC1=NS(=O)(=O)Nc2nc(-c3cccs3)[nH]c21` returned a TGI of over 100 µM.

For `CON`, the GI50 was over 100 µM and the TGI was over 100 µM.

`CCCOCN1COCN=C1NC#N`: the TGI was over 100 µM.

Regarding `Brc1ccc(Br)nn1`, the GI50 is 7.92 µM and the TGI stood at 20.6 µM.

As for `CN1CCN(c2ccc3nc4c(nc3c2C(F)(F)F)C(=O)c2ncccc2C4=O)CC1`, the GI50 was 1.56 µM and the TGI stood at 2.96 µM.

With `O=c1[nH]c2c(O)cccc2c2cc3c(c(O)c12)OCO3`, the TGI was over 100 µM.

`O=c1cc(-c2ccccc2Cl)[nH]c2cc3c(cc12)OCO3` yielded a TGI of over 100 µM.

Consider `Cc1cc2c(C(C)C)c(O)c(O)c(C=O)c2c(O)c1-c1c(C)cc2c(C(C)C)c(O)c(O)c(C=O)c2c1O` (tested in a mixture with another compound), for which the GI50 was 0.998 µM and the TGI was 10.3 µM.

Compound `COc1ccc(-n2c(=O)n(C)c(=O)n2-c2c(C)c(C)c(C)c(C)c2C)cc1` gave a TGI of over 100 µM.

In turn, `CC1OC(OC2C(O[C@@H]3C[C@@H]4CC[C@@H]5[C@H](CC[C@]6(C)[C@@H]7[C@H](C[C@@H]56)O[C@]5(CC[C@@H](C)CO5)[C@H]7C)[C@@]4(C)C[C@H]3O)OC(CO)C(OC3OC(CO)C(O)C(O)C3O)C2O)C(O)C(O)C1O` (stereo not given in full) displayed a TGI of 4.92 µM.

For `COc1ccc(/C(Cl)=C/c2ccc(Cl)c(Cl)c2)cc1`, the TGI is over 100 µM.

Compound `CC(C)(C)C[P+](C)(C)c1ccccc1` gave a TGI of over 100 µM.

Compound `CCCC(=O)OCC(O)CO` (stereo not given) had a TGI of over 5000 µM.

`CS(=O)(=O)c1nc(Cl)c(Cl)c(C#N)c1Cl` yielded a TGI of 31.5 µM.

The compound `N#C/C(=C\c1ccc(O)cc1O)C(N)=O` registered a TGI of over 100 µM.

Take `N#Cc1c(Oc2ccc(F)c(NC(=O)Cc3cccc(C(F)(F)F)c3)c2)ccc2nc(NC(=O)C3CC3)sc12`: the GI50 was 1.92 µM and the TGI was over 100 µM.

With `COc1ccc(NC(=O)O[C@H]2[C@H](O[C@H]3[C@@H](O)COC(O[C@H]4C[C@H]5[C@@H]6CC=C7C[C@@H](O)CC[C@]7(C)[C@H]6CC[C@]5(C)[C@H]4[C@H](C)C(=O)CCC(C)C)[C@@H]3OC(C)=O)OC[C@@H](O)[C@@H]2O)cc1` (stereo not given in full), the GI50 is 3.92 µM and the TGI stood at 30.9 µM.

`COc1ccccc1OC(=O)/C=C/c1ccccc1`: the TGI was over 100 µM.

Turning to `Cc1cc2nc3c4ccccc4n(CCN(C)C)c3nc2cc1C`, the GI50 is 1.86 µM and the TGI came out at 7.6 µM.

For the compound `Cc1ccc(-c2cc(/C=N/O)on2)cc1`, the GI50 was 82.5 µM and the TGI was over 100 µM.

`FC(F)(F)C1=NC(=NNc2nnc(-c3ccccc3)c(-c3ccccc3)n2)N=C(C(F)(F)F)C1` gave a TGI of over 100 µM.

In the case of `C=CCC1=CC2(OC)C(=O)C(OC)(OC)C1C1C(OC)(OC)C(=O)C(OC)=CC12CC=C` (stereo not given), the TGI is over 100 µM.

`CCOC(=O)[C@H]1C[C@]23CN(C(=O)OC(C)(C)C)CC[C@H]2CCC2(SCCCS2)[C@@H]3N1C` gave a TGI of over 100 µM.

On to `Cc1onc(-c2c(F)cccc2Cl)c1C(=O)N[C@@H]1C(=O)N2[C@@H]1SC(C)(C)[C@@H]2C(=O)O`, for which the TGI is over 100 µM.

`CCOC(=O)N1CCC(=O)C[C@@H]1C/C=C/P1(=O)O[C@H](c2ccccc2)C(C)N1C(C)C` (stereo not given in full): the TGI was over 100 µM.

For `CC(OCc1ccccc1)C(NC(=O)C1CSSCC(NC(=O)C(Cc2ccccc2)NC(=O)OCc2ccccc2)C(=O)NC(Cc2ccccc2)C(=O)NC(Cc2cn(C=O)c3ccccc23)C(=O)NC(CCCCNC(=O)OCc2ccccc2)C(=O)NC(C(C)OCc2ccccc2)C(=O)N1)C(N)=O` (stereo not given), the TGI is over 100 µM.

`OC1C2C=CCC1CCC2` (stereo not given) displayed a TGI of over 100 µM.

For `c1ccc2nc3cc4c(cc3nc2c1)NC12CCCCC1CC1=C(CCCC1)N42` (stereo not given), the TGI was over 10 µM.

The compound `Nc1cccc2nsnc12` displayed a TGI of over 100 µM.

With `COc1ccc(C(=O)c2ccc(-n3c4ccccc4c4ccc5c(c43)C(=O)C=CC5=O)cc2)cc1`, the TGI was found to be 18.4 µM.

As to `C=C1CO[C@@H]2C[C@@H]1CC/C(C)=C/CC/C(C)=C/CC[C@@]2(C)O`, the GI50 is 16.1 µM and the TGI is 40.1 µM.

In turn, `CC1C(=O)C23OC[C@@]1(C)C1(O)CC[C@@H](C)[C@]21CC3=O` (stereo not given in full) registered a TGI of over 100 µM.

`O=C(CCc1cccc(O)c1)NCCc1cccc(OCc2ccccc2)c1` came in with a TGI of 76.1 µM.

The compound `O=C(/N=C/c1c(O)c2ccccc2oc1=O)NC1CCCCC1` came in with a TGI of over 100 µM.

As for `CCOC(=O)CC(N1CC1)N1CC1`, the TGI was over 10 µM.

`N#CC(c1ccccc1)(c1ccccc1)[C@@H](c1ccccc1)[C@H](Cc1ccccc1)NS(=O)(=O)c1ccccc1`: the TGI was over 100 µM.

As for `COc1ccc(C2S/C(=C\c3cccc(O)c3)C(=O)N2NC(=O)Cc2ccccc2)cc1` (stereo not given), the TGI is over 100 µM.

In turn, `COc1cc2c3c(c1O)C1(C=CC(=O)C=C1)CC3N(C)CC2` (stereo not given) displayed a TGI of 21.8 µM.

In the case of `CN(C)/C=N/S(=O)(=O)c1nn2c(C=O)c(-c3ccc([N+](=O)[O-])cc3)nc2s1`, the TGI was over 70.4 µM.

On to `CCOC(=O)c1c(N2CCOCC2)[nH]c(=O)c(C(c2ccc(Cl)c([N+](=O)[O-])c2)c2c(O)c(C(=O)OCC)c(N3CCOCC3)[nH]c2=O)c1O`, for which the TGI is over 100 µM.

`O=C(N/C(=C/c1ccc(Cl)cc1)c1nc2ccccc2c(=O)n1Nc1ccc([N+](=O)[O-])cc1[N+](=O)[O-])c1ccccc1` returned a TGI of over 100 µM.

Take `CNC(=O)OCCN1c2ccccc2Sc2ccccc21`: the TGI was over 100 µM.

In turn, `CCOC(=O)C(Cc1cn(S(=O)(=O)c2ccc(C)cc2)cn1)P(=O)(OCC)OCC` (stereo not given) displayed a TGI of over 100 µM.

Consider `O=C(Nc1ccc(S(=O)(=O)NC2CCCCCC2)cc1)C(c1ccccc1)S(=O)(=O)c1ccc(F)cc1` (stereo not given), for which the GI50 is 0.327 µM and the TGI was determined as 4.23 µM.

For `C[C@]12CCCC(=O)C1C[C@H](C(=O)O)CC2` (stereo not given in full), the TGI is over 100 µM.

The compound `O=S(Cc1cc2c(cc1Br)OCO2)c1ccccc1` (stereo not given) gave a TGI of over 100 µM.

Compound `O=C1N[C@@H]2c3c(Br)sc(Br)c3C(=O)[C@@H]2N1` showed a TGI of 20.5 µM.

For `CC(C)NC(=O)O/N=C1\CCC2[C@@H]3CC=C4C[C@@H](OC(=O)NC(C)C)CC[C@]4(C)C3CC[C@]12C` (stereo not given in full), the TGI is 6.11 µM.

`NNC(=S)N/N=C/C(Cl)=C(\Cl)C(=O)O` returned a TGI of over 100 µM.

The compound `Cc1cc(-c2nc3cc(F)ccc3s2)ccc1NC(=O)C(C)N` (stereo not given) showed a TGI of 6.46 µM.

Consider `COc1ccc(-n2sc(=O)n(Cc3ccc(COC(=O)C(C)c4ccc(CC(C)C)cc4)cc3)c2=O)cc1` (stereo not given), for which the GI50 is 7.8 µM and the TGI came to 14.5 µM.

With `Oc1ccc2ccccc2c1Cc1c(O)ccc2ccccc12`, the TGI amounted to 35.7 µM.

Turning to `ClC1=C(Cl)C(Cl)=C(Cl)C1=Cc1ccc(Cl)cc1`, the GI50 was 1.94 µM and the TGI turned out to be 4.09 µM.

With `O=C1c2ccccc2C(=O)c2c(NC(=O)c3ccc4c5c(ncnc35)-c3ccccc3C4=O)cccc21`, the TGI was over 100 µM.

For `COc1ccc(-n2cc(-c3ccc(OC)c(OC)c3)nc2SCc2ccccc2)cc1Cl`, the GI50 is 29.5 µM and the TGI was over 100 µM.

For the compound `CC(C)(C)C(=O)[CH-]C(=O)C(F)(F)C(F)(F)C(F)(F)F.CC(C)(C)C(=O)[CH-]C(=O)C(F)(F)C(F)(F)C(F)(F)F.[O-]CC1OC(O)C(O)C(O)C1O.[O-]CC1OC(O)C(O)C(O)C1O.[Ti+4]`, the GI50 was over 100 µM and the TGI is over 100 µM.

For `O=C(Nc1ccc(F)cc1)c1cc2ccc(O)cc2oc1=Nc1ccccc1F`, the TGI stood at 40.7 µM.

Consider `NC(N)=N/N=C/c1ccc(O)c(C(=O)O)c1`, for which the TGI is over 100 µM.

`OC(c1ccccc1)c1c(-c2ccccc2)oc(-c2ccccc2)c1C(O)c1ccccc1` (stereo not given) gave a TGI of 25.2 µM.

Compound `CN(C)CCC(C(=O)C(C)(C)C)c1ccccn1` (stereo not given) had a TGI of over 100 µM.

For `Cc1cccnc1CNC1CC(NCc2ncccc2C)CC(NCc2ncccc2C)C1` (stereo not given), the GI50 is 3.38 µM and the TGI is 11.7 µM.

In the case of `CCOC(=O)C(Cc1ccc(OC)cc1)C(=O)OCC`, the GI50 was 10.3 µM and the TGI is 23.5 µM.

`CC(=O)/C=C/C1=C(c2ccsc2)c2ccccc2CC1`: the GI50 was 27 µM and the TGI was 88.1 µM.

In turn, `CC12C(=O)N(CCN)C(=O)C1C1c3ccccc3C2c2ccccc21` (stereo not given) came in with a TGI of over 100 µM.

As for `CCc1oc2ccc(OC)c3c2c1C=CC=C3`, the TGI is over 100 µM.

For the compound `Cn1c(N)c(-c2c3ccccc3nc3ccccc23)c(=O)n(C)c1=O`, the TGI was over 100 µM.

In turn, `O=C1c2ccccc2C(=O)c2sc(Nc3ccc(Cl)c(Cl)c3)nc21` had a TGI of 29 µM.

Take `COc1cc(C2C(C#N)=C(N)Oc3cc4c(cc32)OCO4)cc2c1OCO2` (stereo not given): the GI50 is 2.47 µM and the TGI was over 100 µM.

In the case of `COc1ccc2[nH]c3c(C)c4cnccc4c(C)c3c2c1`, the TGI was over 10 µM.

Consider `C[n+]1c(-c2ccc(/C=N\NC(=O)c3ccc(C(=O)N/N=C/c4ccc(-c5cn6ccsc6[n+]5C)cc4)cc3)cc2)cn2ccsc21`, for which the TGI came to 39 µM.

Take `C[C@@H]1CN2[C@H]3[C@@H]1CC[C@]31CCC(=O)O[C@]1(C)[C@@H]1CC[C@H]3CCC=C3[C@@H]12`: the GI50 is over 70 µM and the TGI is over 70 µM.

The compound `O=C(/C=C/c1ccc(F)c(F)c1)OCCc1ccccc1` gave a TGI of over 100 µM.
